About 550 (0.42%) of roughly 130,000 compounds were called active. The shares of active, inactive and inconclusive entries below differ from those in the screen. Calls follow the shape of the dose curve; as a rule, active = well fitted inhibition curve with a large enough effect; inconclusive = small, poorly fitted or top-dose-only effect, or effect the other way; inactive = flat fitted curve, though single readings scatter. Potencies of inconclusive entries are left out as doubtful fits.
Assay: qHTS Assay for Inhibitors of the ERK Signaling Pathway using a Homogeneous Screening Assay; Stimulation with EGF; also: nearly all actives have a fitted effect of over 55% in size
Conditions: HEK293-V1b, EGF-stimulated phospho-ERK AlphaScreen
How it was run: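 Homogeneous cell-based phospho-ERK assay: HEK293/V1b cells in 1% FBS, compound 30 min then EGF 5 min, AlphaScreen luminescence. Activity normalized between DMSO and 25 nM EGF controls; AC50 from Hill modelling.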
Potency is read from the fitted curve at half-maximal effect; tags tell the direction and shape of the fitted curve.

| SMILES | Potency |
| --- | --- |
| Nc1nc(C23CC4CC(CC(C4)C2)C3)[nH]c(=O)n1 | inactive |
| COc1ccc(C(=O)C2CCN(C(=S)Nc3ccc(F)cc3)CC2)cc1 | inconclusive [inhibitor, single point] |
| NC(Cc1ccccc1)C(O)(c1ccccc1)c1ccccc1 (centres undefined) | inconclusive [inhibitor, partial curve] |
| CC(C)Nc1nnc(SCC(=O)Nc2ccc3c(c2)C(=O)c2ccccc2C3=O)s1 | inconclusive [inhibitor, single point] |
| COc1ccc(C2CC(c3cccs3)=NN2S(C)(=O)=O)cc1 (centres undefined) | inconclusive [inhibitor, single point] |
| C[C@]12CCC(=O)C=C1CCC1C2C(=O)C[C@]2(C)C1CC[C@]2(O)C(=O)CO (some centres undefined) | inactive |
| COc1cccc(C2=NN(C(=O)c3cccs3)C(O)(C(F)(F)F)C2)c1 (centres undefined) | inconclusive [inhibitor, single point] |
| Cc1ccccc1Nc1scc(-c2ccc(Cl)cc2)[n+]1-c1ccccc1C | inconclusive [inhibitor, partial curve] |
| O=C1Nc2ccccc2/C1=N\N=C\c1ccc(O)c(O)c1 | inconclusive [inhibitor, single point] |
| O=C(O)c1cccc(N2C(=O)c3ccc(Oc4ccc(Cl)cc4)cc3C2=O)c1 | inconclusive [inhibitor, single point] |
| Oc1cc2c(cc1O)[C@@H](c1ccccc1)CNCC2 | inconclusive [inhibitor, single point] |
| O=C(CN1CCN(Cc2ccccc2)CC1)N1CCCc2c1c(=O)oc1ccc(O)cc21 | inconclusive [inhibitor, single point] |
| Cc1nc2ccccc2n1CC(O)COc1ccccc1Cl (centres undefined) | inconclusive [inhibitor, single point] |
| CCCOc1ccc(/C=C2\SC(=S)N(CC3CCCO3)C2=O)cc1 (centres undefined) | inconclusive [inhibitor, partial curve] |
| Cc1nn(-c2ccccc2)c(N)c1N=Nc1ccc(Cl)cc1 | inconclusive [inhibitor, partial curve] |
| CCCOc1ccc(C(=O)C(CCC(CNCC)C(=O)c2ccc(OCCC)cc2)CNCC)cc1 (centres undefined) | inconclusive [inhibitor, single point] |
| O=[N+]([O-])c1ccc(N/N=C2\CC3CC=CC23)c([N+](=O)[O-])c1 (centres undefined) | active: 14.1 µM |
| CC(C)Nc1oc(-c2ccccc2)nc1-c1cccc2ccccc12 | inactive |
| CC(C)(C)c1ccc(/C=C/C(=O)Nc2ccc3c(c2)OCCO3)cc1 | inactive |
| CC1(C)CC(=O)C2=C(C1)OC1=C(C(=O)CC(C)(C)C1)C2c1ccc(O)c([N+](=O)[O-])c1 | inactive |
| Cc1cc(=O)c(C(=O)O)nn1-c1ccccc1 | inconclusive [activator, partial curve, poor fit] |
| CCOc1cccc(OCCOCCNC(C)(C)C)c1 | inactive |
| CCCOC(=O)c1cccc(NC(=O)COc2ccc([N+](=O)[O-])cc2)c1 | inconclusive [inhibitor, single point] |

| SMILES | Potency |
| --- | --- |
| CC1c2ccccc2N(NC(=O)Cc2ccccc2)C1C (centres undefined) | inconclusive [activator, partial curve, poor fit] |
| Cc1c(N2C(=O)CSC2=S)c(=O)n(-c2ccccc2)n1C | inconclusive [inhibitor, single point] |
| Cn1c(=O)c2[nH]c(-c3ccccc3Cl)c(O)c2n(C)c1=O | inactive |
| Oc1cccc(/C=N/Nc2ncnc3c2ncn3Cc2ccccc2)c1 | inconclusive [inhibitor, single point] |
| CN(C)S(=O)(=O)c1ccc(C(=O)Nc2nc(-c3cc4ccccc4o3)cs2)cc1 | inconclusive [inhibitor, partial curve] |
| COCCn1c(SCC(=O)N2CCc3ccccc3C2)nc2cc(Cl)ccc2c1=O | inactive |
| O=[N+]([O-])c1nn(-c2ccccc2)n(O)c1=NCCc1ccccc1 | inconclusive [inhibitor, single point] |
| COC(=O)[C@@]1(C)CCC[C@@]2(C)c3ccc(O)c(C(C)C)c3CCC21 (some centres undefined) | active: 22.4 µM |
| Cc1nc(-c2ccc(C(=O)Nc3ccc(F)cc3)cc2)cs1 | inconclusive [inhibitor, single point] |
| O=C(Cn1nnc(-c2ccccc2F)n1)OCC(=O)c1ccccc1 | inconclusive [inhibitor, single point] |
| O=C1c2ccccc2C(=O)C1c1ccccc1 | inconclusive [activator, partial curve, poor fit] |
| NS(=O)(=O)c1ccc(NC(=O)c2ccc(-c3ccccc3)cc2)cc1 | inactive |
| CCOc1cc(/C=C2\SC(=S)N(C(C(=O)O)c3ccccc3)C2=O)ccc1O (centres undefined) | inconclusive [inhibitor, single point] |
| Cc1ccc(CN2CCN(/N=C/c3ccc(C)s3)CC2)cc1 | inconclusive [inhibitor, partial curve] |
| COc1ccc(C(=O)C[n+]2cccc(C)c2C)cc1[N+](=O)[O-] | inactive |
| COc1cccc(CC2(CO)CCCN(Cc3[nH]c4ccc(C)cc4c3C)C2)c1 (centres undefined) | inconclusive [inhibitor, single point] |
| COc1ccc(NS(=O)(=O)c2cc(NC(=O)C3CC3)ccc2N2CCOCC2)cc1 | inactive |
| OC(COc1ccc2cc(Br)ccc2c1)CN1CCOCC1 (centres undefined) | inconclusive [inhibitor, single point] |
| O=C(O)c1ccc(N/N=C/c2ccnc3ccccc23)cc1 | inconclusive [inhibitor, single point] |
| O=C(O)CCc1nc(-c2ccccc2)c(-c2ccccc2)o1 | inconclusive [inhibitor, partial curve] |
| CCOc1ccc2ncc(S(=O)(=O)c3ccccc3)c(N3CCN(c4ccc(OC)cc4)CC3)c2c1 | inconclusive [inhibitor, partial curve] |
| CC(CCC(=O)O)C1CCC2C3C(O)C[C@@H]4CC(O)CC[C@@]4(C)C3CC(O)[C@]12C (some centres undefined) | inactive |
| CCCCCCCCCCCCCC(=O)N[C@H](C)[C@@H](O)c1ccccc1 | inactive |

| SMILES | Potency |
| --- | --- |
| Cc1ccc(NC(=O)C(Cc2ccccc2)n2cccc2)cc1 (centres undefined) | inconclusive [inhibitor, partial curve, poor fit] |
| COC(=O)/C(=C\C(=O)c1ccccc1)Nc1ccc(OC)cc1 | inconclusive [inhibitor, partial curve] |
| CCCCC/C=C\C[C@@H]1O[C@H]1C(O)/C=C\C/C=C\CCCC(=O)O (some centres undefined) | inactive |
| O=C(Nc1ccc(C(=O)NC2CCCCC2)cc1)c1cccnc1 | inconclusive [activator, single point] |
| C=CCNC(=O)c1cnc2n(c1=O)CCS2 | inconclusive [activator, full curve, poor fit] |
| Cc1ccc(CN=c2c([N+](=O)[O-])nn(-c3ccc4c(c3)OCCO4)n2O)cc1 | inactive |
| CCOC(=O)C1=C(O)/C(=C/c2cc(OC)c(OC)c(OC)c2)SC1=Nc1ccc(OC)cc1 | inconclusive [inhibitor, partial curve] |
| CC(=O)c1ccccc1OCC(O)CN1CCN(CCN2C(=O)c3cccc4cccc(c34)C2=O)CC1 (centres undefined) | active: 25.1 µM |
| COc1ccc(N(C(=O)c2ccco2)S(=O)(=O)c2ccc(F)cc2)cc1 | inactive |
| O=C(CCC1CCCCC1)Nc1ccc(C(=O)c2ccncc2)cc1 | inconclusive [inhibitor, single point] |
| COc1ccccc1N1CCN(Cc2nc(-c3ccc(F)cc3)oc2C)CC1 | inconclusive [inhibitor, single point] |
| CC(/C=C1\SC(=S)N(CCC(=O)Nc2nc(C)cs2)C1=O)=C\c1ccccc1 | inconclusive [inhibitor, partial curve] |
| O=C(c1ccc(S(=O)(=O)N2CCOCC2)cc1)N1CCN(c2ccccn2)CC1 | inconclusive [inhibitor, single point] |
| Cc1ccc(C(=O)NNC(=O)C2CCN(S(=O)(=O)c3ccc(Cl)cc3)CC2)cc1 | inactive |
| CC1=NN(c2ccccc2)C(=O)/C1=C/c1c(O)n(-c2ccc(F)cc2)[nH]c1=O | inactive |
| CCOC(=O)C1=C(C)N(C)C(=S)NC1c1c(OCC)ccc2ccccc12 (centres undefined) | inconclusive [inhibitor, partial curve] |
| Cc1nc(NCCCN2CCOCC2)c2oc3ccccc3c2n1 | inconclusive [inhibitor, partial curve] |
| O=C(NC1=NN(c2ccccc2)CC1)Nc1ccccc1F | inconclusive [inhibitor, full curve, poor fit] |
| CCN(CC)c1ccc(/C=N/NC(=O)c2cccc(S(=O)(=O)Nc3ccccc3OC)c2)c(O)c1 | inconclusive [inhibitor, single point] |
| Cc1ccc(C(=O)Nc2nc(N)n(-c3ccccc3)n2)cc1 | inactive |
| CCOc1ccc(Nc2ccc(N3C(=O)CCC3=O)cc2[N+](=O)[O-])cc1 | inconclusive [inhibitor, partial curve] |
| COCCN(CCOC)c1nc(C)nc2c1nc(-c1ccccc1)n2CCN1CCCC1 | inactive |
| COc1cc(O)c(C(=O)/C=C/c2ccc(OC)c(O)c2)c(OC)c1 | inconclusive [inhibitor, single point] |

— PubChem BioAssay AID1454 (National Center for Advancing Translational Sciences (NCATS), 2008)
